Laboratory results as given in PubChem BioAssay AID1347073 (National Center for Advancing Translational Sciences (NCATS), 2019).
Screen size: about 45,000 compounds; about 200 (0.44%) were called active. Roughly 7% stayed inconclusive and do not appear here. Calls follow the shape of the dose curve; as a rule, active = well fitted activation curve with a large enough effect; inconclusive = small, poorly fitted or top-dose-only effect; inactive = no such curve, though single readings can be large or run the other way. This is one part of the list.

assay: qHTS of TDP-43 Inhibitors: NCGC Sytravon Library Screen; settings: yeast TDP-43 toxicity rescue, BacTiter-Glo growth, 24 h; series mostly up to 46.1 µM; growth rescue (activation): at the top concentration; also: 0% is about no effect; nearly all actives have a fitted effect of over 55% in size
Summary of the method: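 TDP-43-expressing yeast, pregrown in raffinose, seeded at OD600 0.02 in galactose medium with compound for 24 hr at 30 deg C. Growth read by BacTiter-Glo luminescence, so rescue of toxicity appears as activation.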

SMILES	growth rescue (activation)
CC(=O)c1c(C)n(-c2ccc(Cl)cc2)c2ccc(O)cc12	inactive: 6.58%
NC(=O)C1(N2CCCCC2)CCN(C(=S)NC2CCCC2)CC1	inactive: -12.1%
CCOc1ccc(C=NNc2ccc(S(=O)(=O)Nc3ccccc3C(=O)O)cc2[N+](=O)[O-])cc1OC	inactive: 12%
O=C(Cn1nnc(-c2ccc(F)cc2)n1)OCC(=O)c1ccccc1	inactive: 4.12%
CCN(c1ccccc1)S(=O)(=O)c1cccc(C(=O)NCC(c2ccco2)N2CCCCC2)c1 (configuration not stated)	inactive: -9.94%
Nc1[nH]n(-c2ccccc2)c(=O)c1N=Nc1ccccc1	inactive: -1.13%
CC(C)(C)c1ccc(C(=O)N2CCC2(C)C(=O)NS(=O)(=O)c2ccc(C#N)cc2)cc1 (configuration not stated)	inactive: -20.6%
OC(c1ccccc1)c1nc(/C=C/c2ccc(C(F)(F)F)cc2)cs1 (configuration not stated)	inactive: 17.4%
CC(=O)N1CCc2cc(N=NC3=C(O)CCCC3=O)ccc21	inactive: 1.95%
S=C(Nc1cccc(Cl)c1)N1CCN(Cc2ccccc2)CC1	inactive: 8.27%
Cc1nc(NCCc2ccc(O)cc2)c2nnn(Cc3ccccc3)c2n1	inactive: 14.9%
CN1CCN(C(=O)/C(=C\c2cccs2)NC(=O)c2ccco2)CC1	inactive: 4.93%
CC(C)c1ccc(S(=O)(=O)/N=C2/C=C(Sc3ncn[nH]3)C(=O)c3ccccc32)cc1	inactive: -46.7%
CCOC(=O)c1c(NCC2CCCO2)c2ccccc2[nH]c1=O (configuration not stated)	inactive: 9.34%
Cc1cccc(C(C(=O)NC2CCCCC2)N(C(=O)c2csnn2)C2CC2)c1 (configuration not stated)	inactive: -9.71%
COc1ccccc1N1CCN(C(=O)c2cccc(C(=O)N3CCN(c4ccccc4OC)CC3)c2)CC1	inactive: 3.96%
O=C(NCc1cccs1)C1CCCN1C(=O)Nc1ccccc1[N+](=O)[O-] (configuration not stated)	inactive: -0.254%
Cc1ccc(CN2C(=O)CCC2C(=O)N2CCN(c3ccc(F)cc3)CC2)cc1 (configuration not stated)	inactive: 7.52%
COc1ccccc1-c1cc(C(F)(F)F)c(C#N)c(=O)[nH]1	inactive: -2.22%
CCOC(=O)COc1ccc2c(C#N)c3ccccn3c2c1	inactive: 6.61%
Cc1ccc(S(=O)(=O)N2CCCCC2)cc1NC(=O)COC(=O)c1cc[n+]([O-])cc1	inactive: 10.1%
C=CCc1cccc(/C=N/NC(=O)CCC(=O)Nc2ccc(F)cc2)c1O	inactive: -9.73%
COc1ccc(C=Nc2ccc3[nH]ncc3c2)c(O)c1	inactive: -5.83%

SMILES	growth rescue (activation)
COc1ccc(NC(=O)Cc2nnc(SCC(=O)c3ccc(F)cc3)n2C)cc1	inactive: 7.61%
COC(=O)/C(=C/c1ccccc1)NC(=O)c1ccco1	inactive: -0.436%
COc1cc(/C=C(/Sc2nnc(-c3ccc(F)cc3)o2)C(=O)O)ccc1OC(F)F	inactive: 0.28%
CN(C)c1ccc(CN2CCC(C(N)=O)CC2)cc1	inactive: -5.6%
Cc1nc(N2CCN(c3ccccc3)CC2)[nH]c(=O)c1CCC(C)C	inactive: -12.7%
COCCCn1c(SCC(=O)N2CCOCC2)nc2ccccc2c1=O	inactive: -8.39%
c1ccc(CN2CCN(c3nc4ccccc4c4ccccc34)CC2)cc1	inactive: -9.83%
O=C(NCCCN1CCC(Cc2ccccc2)CC1)C1CCN(S(=O)(=O)N2CCC3(CC2)OCCO3)CC1	inactive: 0.792%
OCCN(Cc1ccccc1)C(=S)NC1CCCCC1	inactive: 16.7%
Cc1ccc(C2c3c(oc4ccccc4c3=O)C(=O)N2c2ccc(C)cn2)cc1 (configuration not stated)	inactive: 12.1%
CCC(=O)Nc1nc2nc(-c3ccccc3)cc(=O)n2[nH]1	inactive: 19%
CC(CNC(=O)c1ccc2c(c1)OCO2)c1ccc([N+](=O)[O-])cc1 (configuration not stated)	inactive: 7.01%
CCCNC(=O)C1(C)CCN(C(=O)c2cc(C)n(C(C)(C)C)n2)C1 (configuration not stated)	inactive: 1.02%
CCCn1c(-c2ccc(C(=O)OC)cc2)nc2c1c(=O)[nH]c(=O)n2Cc1ccccc1	inactive: 8.37%
Cc1ccc(COc2ccc(CNCCCN3CCCCCC3=O)cc2)cc1	inactive: -3.24%
Nc1nc(NCCCN2CCOCC2)nc(Nc2cccc(Cl)c2)c1[N+](=O)[O-]	inactive: -12.4%
CC1CCCC(C)N1NC(=S)Nc1ccc(OC(F)F)cc1 (configuration not stated)	inactive: 14.1%
O=S(=O)(c1cccc2nsnc12)N1CCNCC1	inactive: 15.2%
COc1ccc(NS(=O)(=O)c2ccc(NC(=O)Cc3cccs3)cc2)cc1	inactive: -14.3%
COc1ccc(CCN(C)S(=O)(=O)c2ccc(Cl)nc2)cc1OC	inactive: 0.513%
Cc1ccc2c(C)cc[n+](CCCS(=O)(=O)[O-])c2c1	inactive: 6.58%
CCS(=O)(=O)Nc1cccc(C2=NN(C(C)=O)C(c3cccs3)C2)c1 (configuration not stated)	inactive: 1.32%
COCCN=c1scc(-c2ccc3c(c2)NC(=O)CO3)n1/N=C(\C)c1ccc(O)cc1	inactive: 2.57%

SMILES	growth rescue (activation)
COc1ccc(/C=C/C(=O)C2(O)CCCCC2)cc1	inactive: -16.3%
COc1ccc(-c2noc(CSc3nc(N)c(-c4ccccc4)c(=O)[nH]3)n2)cc1OC	inactive: 5.91%
CN(C)C(=O)c1cccn(Cc2cccc(C(F)(F)F)c2)c1=O	inactive: 0.493%
CC(=O)Nc1cccc2c1C(=O)N(c1ccccc1OC(C)=O)C2=O	inactive: -3.55%
Cc1ccc(NC(=O)CSc2nnnn2C2CC2)cc1S(=O)(=O)N1CCOCC1	inactive: 0.439%
COc1cc2ccccc2cc1C(=O)NC(=S)Nc1cccc(C(=O)O)c1	inactive: 4.83%
CCOc1cc(C(=O)Nc2ccc(S(=O)(=O)Nc3nnc(CC)s3)cc2)cc(OCC)c1OCC	inactive: -13.9%
CNC(=S)N/N=C(\C)c1ccc2c(c1)OCCO2	inactive: 40.9%
COc1cc(F)ccc1-c1csc(C(O)c2ccc(F)c(F)c2)n1 (configuration not stated)	inactive: -73.3%
N#Cc1cc(C(=O)c2ccccc2OCC(=O)Nc2ccccc2Cl)cn(C2CCCCC2)c1=O	inactive: 5.17%
CCOC(=O)N1CCN(C(=O)C2CCN(CC3CCCCC3)CC2)CC1	inactive: 11.6%
Oc1ccccc1C=NC1CCCCC1N=Cc1ccccc1O (configuration not stated)	inactive: 1.52%
CCOC(=O)c1c(C)n(S(=O)(=O)c2ccc(C)cc2C)c2ccc(NS(=O)(=O)c3ccc(C)cc3C)cc12	inactive: -6.22%
O=C(COC(=O)c1ccccc1)Nc1ccc(Cl)cn1	inactive: -14.5%
CC(=O)Nc1ccc(C(=O)OCC(=O)c2cccc([N+](=O)[O-])c2)cc1	inactive: 6.57%
CCCCCOC(=O)C1C(c2ccccc2)C(C(=O)O)C1c1ccccc1 (configuration not stated)	inactive: 19.2%
Cc1cc(C(=O)N2CCCC(C(=O)c3cc(F)ccc3F)C2)c(C)o1 (configuration not stated)	inactive: 26.7%
Cc1[nH]c2ccccc2c1C(=O)COC(=O)Cn1c(C(F)(F)F)nc2ccccc21	inactive: 8.15%
COc1ccc(CCNC(=O)CCCc2ccccc2)cc1OC	inactive: 8.62%
O=C(NC1C2CC3CC(C2)CC1C3)c1ccc(Br)o1 (configuration not stated)	inactive: -19.8%
COc1cc(OC)c(OC)cc1/C=N/NC(=O)c1cnccn1	inactive: 0.0341%
